42 sequences from PMC7819943, “Rice protein-binding microarrays: a tool to detect cis-acting elements near promoter regions in rice” can be followed below.

This is one part of the list.

The target in this assay is T1, OsWOX13 (Oryza sativa, UniProt Q5QMM3 1-267).
T1 sequence: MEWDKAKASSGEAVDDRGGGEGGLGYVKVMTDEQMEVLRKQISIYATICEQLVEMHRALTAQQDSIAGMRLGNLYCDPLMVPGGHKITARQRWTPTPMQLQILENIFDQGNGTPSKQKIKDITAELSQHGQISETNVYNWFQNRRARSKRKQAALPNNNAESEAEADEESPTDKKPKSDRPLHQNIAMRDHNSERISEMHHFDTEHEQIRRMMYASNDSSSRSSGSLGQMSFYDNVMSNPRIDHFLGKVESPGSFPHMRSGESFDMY
Put plainly: protein-binding microarray (RPBM); PBS, 2% BSA, 51.3 ng/ul salmon testes DNA, 50 uM zinc acetate, 200 nM TF, 25 C, 1 h; high values mean tight binding. To be noted: protein: recombinant; tags: N-terminal polyhistidine and DsRed monomer fusion (pET32a); label: CyDye5-dUTP incorporated in the synthesized complementary strand; 3' TTTTT single-stranded linker to array surface; dsDNA, one strand shown. Put shortly:
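Transcription factors, each fused N-terminally to a polyhistidine tag and DsRed, were expressed in E. coli BL21-CodonPlus and purified on Ni–NTA. A custom Agilent array was made double-stranded by primer extension with Cy5-dUTP and blocked with 2% BSA. It was incubated with 200 nM protein in PBS, 2% BSA, salmon testes DNA and 50 µM zinc acetate at 25 °C for 1 h, then washed. The binding signal is per-feature fluorescence intensity (arbitrary units) read on an Axon 4000B scanner.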
Consider “GCCGACAAATCACGCCATAGACCAACCCAACCCGTGCCGCCGGAGTCACCTAGTGCAG”, for which the binding signal is 4930 fluorescence intensity (a.u.). Regarding “TAAAGGTTATATTGATGATTGAACGCAACATATTGAGGAACGGAGTCACCTAGTGCAG”, the binding signal was 8790 fluorescence intensity (a.u.). As to “TTAACTGAATTATATGACTCCATATGCAGCAAGTAGTGCACGGAGTCACCTAGTGCAG”, the binding signal is 9570 fluorescence intensity (a.u.). Turning to “CTGCTAAATTGCAACCAATAGGCCGTATACGTGCCTCGGCCGGAGTCACCTAGTGCAG”, the binding signal was 9600 fluorescence intensity (a.u.). With “ATAATTTACATTGTGAAACGGAGGAAGTAAATTACATCCTCGGAGTCACCTAGTGCAG”, the binding signal is 7640 fluorescence intensity (a.u.).

Regarding “TGTGCCCGAGTAATTAATTAATAACCTACTCTCTCCGGTTCGGAGTCACCTAGTGCAG”, the binding signal is 12000 fluorescence intensity (a.u.).

For the sequence “ATTGGCTATTAGATTGGCTATAGATGAATTAGAGTTAGTACGGAGTCACCTAGTGCAG”, the binding signal was 15400 fluorescence intensity (a.u.). With “AACAAATTTAGAAGTTGATGGCCACGGACAAATCGAGAGACGGAGTCACCTAGTGCAG”, the binding signal was 5040 fluorescence intensity (a.u.). Regarding “ATGGCTAATCATAGACTAATTAGGCTCAAAAGTTTCGTCTCGGAGTCACCTAGTGCAG”, the binding signal is 29000 fluorescence intensity (a.u.).

Turning to “ATGATTTGCTTCAGTGATGCTATATTAATCAGCCGCTAATCGGAGTCACCTAGTGCAG”, the binding signal was 22800 fluorescence intensity (a.u.). Consider “CTTAGATTAGACTTTTGCACAATGTAAATTACAAAACTTCCGGAGTCACCTAGTGCAG”, for which the binding signal is 15000 fluorescence intensity (a.u.). Consider “TTCATCTGACATGATTGCCTCTTGTCTTCATCCCTCCCAACGGAGTCACCTAGTGCAG”, for which the binding signal is 23600 fluorescence intensity (a.u.).

As for “ATTTAATTTAGAATGTGTGACAGTGTTTTCAACATGTAGACGGAGTCACCTAGTGCAG”, the binding signal is 26000 fluorescence intensity (a.u.).

With “TAAGTATCCTTGATTGATTGCCTGATCGATCAGCTGCTAGCGGAGTCACCTAGTGCAG”, the binding signal is 55000 fluorescence intensity (a.u.). Consider “TGAAGATTGATGAGATGGACGGTACCATTGCCGATGCTGTCGGAGTCACCTAGTGCAG”, for which the binding signal was 56700 fluorescence intensity (a.u.).

For the sequence “CTTGACTGGCTTCGTTAATGGACTCGCCACCTCACCTACTCGGAGTCACCTAGTGCAG”, the binding signal was 45000 fluorescence intensity (a.u.).

As for “TGGAGTGATTTATCATATATTAATTTATTTTATTCATGTTCGGAGTCACCTAGTGCAG”, the binding signal is 18100 fluorescence intensity (a.u.).

With “TTCTAAATTAATATATTTCATAATCATGGTTCTTTTAGCACGGAGTCACCTAGTGCAG”, the binding signal is 24800 fluorescence intensity (a.u.). As for “CCTAATTGCACCATGATTTGATAATGTTGTGCTACAGTAACGGAGTCACCTAGTGCAG”, the binding signal is 42600 fluorescence intensity (a.u.). Consider “ATCAATCTAATCATGACTTTGAGTCATTTCCGATCTAACTCGGAGTCACCTAGTGCAG”, for which the binding signal is 11800 fluorescence intensity (a.u.).

On to “ACATAGACTGGGAGATGAATACACTACGGTGCCCTCTCATCGGAGTCACCTAGTGCAG”, for which the binding signal is 6990 fluorescence intensity (a.u.). As to “TAATCAATTATCACATGCTGAGATTTCGCAAATCACGCTTCGGAGTCACCTAGTGCAG”, the binding signal was 18700 fluorescence intensity (a.u.). As to “CCTTGGATCGGCTGATTGGCCGATCGAACTAGAGAGAGATCGGAGTCACCTAGTGCAG”, the binding signal is 12100 fluorescence intensity (a.u.).

Turning to “AGTAGTTAATTGGATTGGGCCGGGCCCACCGGCCCACGGCCGGAGTCACCTAGTGCAG”, the binding signal is 30300 fluorescence intensity (a.u.). With “GCCCATATTGATGTATTCATTACCAGAAACTGTGTATCGGCGGAGTCACCTAGTGCAG”, the binding signal was 3360 fluorescence intensity (a.u.). On to “ACCTCCTGACTCTTGCCAATCATCTTATAGCTGTTTAGATCGGAGTCACCTAGTGCAG”, for which the binding signal was 11100 fluorescence intensity (a.u.).

Consider “ATTTTAATTTGTGGGCAGAAATAAACTATATAAGTACATACGGAGTCACCTAGTGCAG”, for which the binding signal is 18000 fluorescence intensity (a.u.). Consider “TATGAGTGATAAATAATTAATTACCACGTCTTAAAAGTGGCGGAGTCACCTAGTGCAG”, for which the binding signal is 28600 fluorescence intensity (a.u.).

For the sequence “TGATTAATTGAGAAGAGAAAGTTAATAAAGAATTTAAATGCGGAGTCACCTAGTGCAG”, the binding signal was 32700 fluorescence intensity (a.u.). As for “GCACGGATTTGATTTGATGATGTTCATGCTTAGAAGATGGCGGAGTCACCTAGTGCAG”, the binding signal is 20500 fluorescence intensity (a.u.). “CTCATAACATAAATAACATGTTATGAAACTTTGATCAAGTCGGAGTCACCTAGTGCAG”: the binding signal is 4160 fluorescence intensity (a.u.). For “GATGATTGAATTCACCAATGTCTCGCTCAACGTGTTACGTCGGAGTCACCTAGTGCAG”, the binding signal is 40500 fluorescence intensity (a.u.). In the case of “TATTAATTAATTACTAAATCAATGCATTTAGGGACTTCTTCGGAGTCACCTAGTGCAG”, the binding signal is 25500 fluorescence intensity (a.u.). Turning to “ATTAATTTCTGATCCCACCTGTCATACACATATTGTTTCTCGGAGTCACCTAGTGCAG”, the binding signal is 10800 fluorescence intensity (a.u.). The value for “GTATGACAGGTAGGACTAGATATTAATAGTGTAATAAGTACGGAGTCACCTAGTGCAG” was 4520 fluorescence intensity (a.u.). In the case of “TAGTTTGATAATTGACTTTACAAACAGATCAATTGTCTGTCGGAGTCACCTAGTGCAG”, the binding signal was 26100 fluorescence intensity (a.u.). Consider “ATACTAATTACTTAATTAGTGACCAGTGATCACTTGTGTGCGGAGTCACCTAGTGCAG”, for which the binding signal is 45800 fluorescence intensity (a.u.). As for “TTGAATTTGATTGTGTGCACATCTAGCTAATGGCAAACAACGGAGTCACCTAGTGCAG”, the binding signal is 16600 fluorescence intensity (a.u.).

Take “GTAATTGGGAGGGAATTTCTCCTTTACTTCGCCTAAACAACGGAGTCACCTAGTGCAG”: the binding signal is 14100 fluorescence intensity (a.u.). Regarding “ATTTCAGAATTTACATTGATTTTGTTTGAAGAGTGCAATTCGGAGTCACCTAGTGCAG”, the binding signal was 4920 fluorescence intensity (a.u.). The value for “TGAGGTGCAATCATTCGAACAATCAAACATGAAGGCTCTACGGAGTCACCTAGTGCAG” was 4530 fluorescence intensity (a.u.); that for “CCCGACGTGAATATGTGATTATCATATGTGCGATGTACACCGGAGTCACCTAGTGCAG” was 3430 fluorescence intensity (a.u.).
